The list shows a part of the results. Sequences were assembled here from the parent chain. Inactive controls read about 0.05.
B1: TEV protease; numbered along this chain (parent)
chain: MGESLFKGPRDYNPISSSICHLTNESDGHTTSLYGIGFGPFIITNKHLFRRNNGTLVVQSLHGVFKVKDTTTLQQHLVDGRDMIIIRMPKDFPPFPQKLKFREPQREERICLVTTNFQTKSMSSMVSDTSCTFPSGDGIFWKHWIQTKDGQCGSPLVSTRDGFIVGIHSASNFTNTNNYFTSVPKNFMELLTNQEAQQWVSGWRLNADSVLWGGHKVFMVKPEEPFQPVKEATQL

Variants of: B1
Experiment: raw area under fraction-flipped curve 0-4 h after induction (AUC4h, not background-subtracted), DNA-recorder readout of cleavage of the substrate (dimensionless); higher = more cleavage of the substrate by the protease variant
Conditions: temperature: 34 °C; time window: 0-4 h after rhamnose induction
Description: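 In vivo DNA recorder in E. coli TOP10(DE3) ΔrhaA at 34 °C. Each TEVp single-site mutant (parent TEVp 0) is paired with a single-site variant of the 7-mer TEVs (canonical ENLYFQ|S). The substrate sits between flexible linkers in a Bxb1-sfGFP-TEVs-SsrA fusion, so cleavage stabilises Bxb1 and speeds flipping of a recombination array, read by NGS. The value is the raw area under the fraction-flipped curve over 0-4 h after rhamnose induction (AUC4h), with ≥20 reads per time point. It is not background-subtracted; inactive controls average about 0.047.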
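Also: Bxb1 expression induced with 0.2% (w/v) L-rhamnose at OD600 near 0.5, cultures sampled hourly, flipped fraction per protease–substrate barcode pair counted by paired-end Illumina sequencing.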

Row | Variant | area with substrate ENAYFQS | area with substrate ENCYFQS | area with substrate ENDYFQS | area with substrate ENEYFQS | area with substrate ENIYFQS | area with substrate ENNYFQS | area with substrate ENQYFQS | area with substrate ENRYFQS | area with substrate ENSYFQS | area with substrate ENVYFQS | area with substrate ENWYFQS | area with substrate ENFYFQS | area with substrate ENGYFQS | area with substrate ENHYFQS | area with substrate ENKYFQS | area with substrate ENPYFQS | area with substrate ENTYFQS | area with substrate ENYYFQS | area with substrate ENMYFQS
1 | R109C | 0.075 | 0.0652 | 0.0518 | 0.0517 | 0.0922 | 0.0537 | 0.0607 | 0.0575 | 0.0583 | 0.0723 | 0.0671 | – | – | – | – | – | – | – | –
2 | R109P | 0.0676 | 0.0577 | 0.06 | 0.0469 | 0.104 | 0.0803 | 0.0521 | 0.066 | 0.0622 | 0.0783 | – | 0.0595 | 0.0594 | 0.0559 | 0.0675 | 0.0681 | 0.0175 | 0.0626 | –
3 | K90I | 0.0671 | 0.0716 | 0.0536 | 0.0572 | 0.116 | 0.0629 | 0.0539 | 0.0456 | 0.0514 | 0.0829 | 0.0666 | 0.0549 | 0.0501 | 0.0567 | 0.072 | 0.0636 | – | – | 0.0765
4 | K90F | 0.0559 | 0.0477 | 0.0542 | 0.0614 | – | 0.0559 | 0.0581 | – | 0.0507 | 0.0872 | – | 0.0541 | – | – | 0.0544 | – | 0.0614 | – | 0.077
5 | L99C | 0.0616 | 0.0559 | 0.0518 | 0.0551 | 0.0939 | 0.0785 | 0.0554 | 0.0534 | 0.071 | 0.0795 | – | – | 0.0657 | – | 0.0338 | – | – | – | –
6 | K100W | 0.051 | – | 0.0699 | 0.0527 | – | 0.0618 | 0.0582 | 0.0525 | 0.062 | 0.0717 | – | 0.0686 | 0.0625 | 0.0544 | – | 0.0388 | 0.0587 | – | 0.0913
7 | K100N | 0.0518 | – | 0.0689 | 0.075 | – | – | 0.0452 | 0.0551 | 0.0671 | – | – | – | – | 0.103 | 0.0769 | – | 0.0563 | – | –
8 | K100T | 0.0518 | – | – | 0.0602 | – | 0.0607 | 0.0767 | 0.0653 | – | – | – | 0.0706 | – | – | – | 0.0452 | 0.0565 | 0.0498 | 0.0905
9 | F92T | 0.0686 | 0.0796 | – | 0.0783 | – | 0.0774 | – | – | 0.0502 | 0.0802 | – | 0.0649 | – | – | – | 0.0396 | – | – | 0.0764
10 | P94Y | 0.0553 | – | 0.0668 | 0.0603 | – | 0.0523 | 0.0524 | – | 0.13 | – | – | 0.0664 | – | – | 0.0666 | 0.0344 | 0.0593 | 0.0476 | 0.0875
11 | P94D | 0.0653 | 0.0621 | 0.0638 | 0.0499 | – | – | 0.055 | – | – | 0.0969 | – | – | 0.0461 | 0.0458 | 0.0458 | – | – | – | –
12 | P94E | 0.0615 | 0.0764 | – | 0.0507 | 0.0962 | 0.0665 | 0.0091 | – | 0.0579 | 0.0791 | 0.0565 | – | 0.0563 | – | – | 0.0555 | 0.0755 | 0.0463 | 0.0885
13 | P94Q | 0.0692 | – | 0.0651 | 0.0629 | – | 0.0623 | 0.0601 | 0.0632 | 0.0615 | 0.0711 | 0.0477 | – | 0.0717 | 0.0509 | – | 0.0485 | – | 0.0401 | 0.0741
14 | R106I | 0.0584 | – | 0.0667 | 0.06 | – | 0.0657 | 0.0639 | 0.064 | 0.0797 | 0.0847 | – | 0.0606 | 0.0773 | – | 0.0712 | – | 0.0619 | – | –
15 | F101Q | 0.0466 | 0.0498 | 0.0506 | 0.0323 | 0.0336 | – | 0.044 | – | 0.0512 | 0.0644 | – | – | 0.0629 | 0.0611 | 0.0732 | 0.0521 | 0.0389 | – | 0.0617
16 | F95S | 0.0606 | 0.0597 | 0.057 | 0.0521 | – | 0.0561 | 0.0487 | 0.0421 | 0.0514 | – | – | 0.047 | 0.0485 | 0.0582 | 0.0543 | 0.0517 | 0.0529 | 0.0492 | 0.0658
17 | P104Y | 0.0565 | 0.0443 | 0.0522 | 0.0558 | 0.0506 | 0.0459 | 0.0555 | 0.0626 | 0.0598 | 0.0551 | 0.0426 | 0.0464 | 0.0575 | – | – | 0.0092 | – | 0.0621 | 0.0562
18 | P89F | 0.066 | 0.0544 | – | – | 0.0583 | – | – | – | 0.0569 | 0.0524 | – | 0.0488 | – | – | – | 0.063 | 0.069 | – | 0.0566
19 | P89W | 0.0473 | 0.0317 | 0.0358 | 0.0551 | – | 0.0319 | 0.0375 | 0.0406 | 0.0488 | 0.0527 | – | – | 0.0423 | 0.0454 | – | – | 0.0686 | – | –
20 | P89E | 0.0526 | 0.0555 | 0.0475 | 0.0613 | 0.0946 | 0.0574 | – | 0.0621 | 0.0276 | 0.0691 | 0.0501 | 0.0674 | 0.054 | – | – | 0.0746 | – | – | 0.0942
21 | K98Q | 0.0613 | – | 0.057 | – | – | – | – | – | 0.106 | – | 0.0274 | 0.0508 | 0.0615 | – | – | – | – | 0.0662 | 0.0746
22 | E108N | 0.0496 | 0.0645 | 0.061 | – | 0.0688 | 0.0585 | 0.0559 | 0.053 | 0.0471 | 0.0501 | – | – | 0.0586 | 0.0556 | – | 0.0474 | 0.0456 | 0.0506 | –
23 | E108Y | 0.0564 | 0.0615 | 0.052 | 0.0561 | – | 0.0556 | 0.0615 | – | 0.0641 | 0.0513 | 0.0567 | 0.0493 | 0.0548 | 0.0349 | – | 0.0735 | 0.0614 | – | –
24 | E103K | 0.0542 | – | 0.0682 | – | 0.142 | 0.0589 | 0.0614 | – | 0.0674 | 0.0742 | – | 0.0673 | – | 0.0667 | – | – | – | – | 0.07
25 | Q105K | 0.0151 | 0.0733 | 0.0486 | 0.0712 | 0.121 | 0.0522 | 0.0635 | 0.0608 | 0.0636 | 0.0844 | 0.0643 | 0.0547 | 0.0576 | 0.0573 | 0.0734 | 0.0657 | 0.0567 | 0.0535 | –
26 | Q105T | 0.0606 | 0.0692 | 0.0717 | – | – | – | – | 0.0608 | 0.0578 | 0.0495 | – | 0.028 | 0.0722 | 0.0607 | – | – | – | – | –
27 | Q105N | 0.062 | 0.0705 | 0.0526 | 0.0584 | – | 0.057 | 0.0642 | 0.0559 | 0.0684 | 0.075 | 0.0213 | 0.083 | 0.0612 | – | 0.0714 | – | 0.0574 | 0.0722 | 0.0839
